Measured values from PubChem BioAssay AID1656 (Sanford-Burnham Center for Chemical Genomics, 2009).
About 950 (0.4%) of roughly 240,000 compounds were called active. This list was built around the results that the source calls inconclusive (neither active nor inactive); the mix of calls is not that of the screen.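 How the source made its calls: active means lipid droplet intensity inhibited by at least 50%, with more than 500 cells counted; inconclusive means wells with under 300 cells, treated as cytotoxic; inactive means the rest.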

Test: oleate-induced lipid droplet accumulation in AML12 cells – imaging, high-throughput imaging, BODIPY stain, primary screen (AID 1656)
Conditions: AML12 mouse hepatocytes, oleate lipid droplets, at 6.5 µM, hits give high values
Outline: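 Test system: AML12 mouse liver cells; schedule: overnight exposure; technique: high-content imaging of BODIPY-stained droplets and DAPI nuclei; read-out: % inhibition of corrected integrated BODIPY droplet signal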

| SMILES | inhibition |
| --- | --- |
| CCN1CCN(c2ccc([N+](=O)[O-])cc2C#N)CC1 | inconclusive: 129% |
| CCC1(OC(=O)CN)C(=O)OCc2c1cc1n(c2=O)Cc2cc3ccccc3nc2-1 (configuration not stated) | inconclusive: -189% |
| O=c1[nH]c(=O)n(-c2ccccc2)c(O)c1/C=C1/C(c2ccccc2)=Nc2ccccc21 | inconclusive: -61% |
| COc1cccc(OC)c1C1=NCC(=O)Nc2c1oc1ccc(Br)cc21 | inconclusive: -166% |
| NC(=S)c1cn(C2OC(CO)C(O)C2O)c2ncnc(N)c12 (configuration not stated) | inconclusive: -180% |
| CC(=O)OC(C)(C)/C=C/C(=O)C(C)(O)C1[C@H](O)C[C@@]2(C)C3CC=C4C(CC[C@@H](O)C4(C)C)[C@]3(CO)C(=O)C[C@]12C (some centres not stated) | inconclusive: -119% |
| C#CCOc1cc(C2C3=C(COC3=O)Nc3cc4c(cc32)OCO4)ccc1OC (configuration not stated) | inconclusive: -171% |
| Cc1cccc(-n2c(/C=C/c3ccc([N+](=O)[O-])o3)nc3ccccc3c2=O)c1 | inconclusive: -72.4% |
| Cc1nc2c(=O)n(C)c(=O)nc-2n(C)n1 | inconclusive: 129% |
| C=C1C(=O)O[C@@H]2C[C@@H](C)[C@@H]3C=CC(=O)[C@@]3(C)[C@@H](OC(=O)CC(=O)O[C@H]3[C@@H]4C(=C)C(=O)O[C@@H]4C[C@@H](C)[C@@H]4C=CC(=O)[C@]43C)[C@H]12 | inconclusive: -147% |
| CC1CCC/C=C/C2CC(O)CC2C(O)/C=C/C(=O)O1 (configuration not stated) | active: 110% |
| Cc1cc(OCC(=O)N[C@@H](Cc2ccccc2)C(=O)O)c2c3c(c(=O)oc2c1)CCC3 | inactive: -7.8% |
| NC(=O)c1cn(C2OC(CO)C(O)C2O)c2ncnc(N)c12 (configuration not stated) | inconclusive: -165% |
| CC1=CC(=C2C(=O)NC(=S)NC2=O)C=C(C(F)(F)F)N1Cc1ccccc1 | inconclusive: -240% |
| O=C(c1ccccc1)c1cn(CC(=O)N2CCOCC2)c2ccccc12 | inactive: 4.2% |
| C=C(C=O)CC1CC(O)[C@]2(C)OC3CC4OC5C[C@]6(C)O[C@]7(C)CCC8OC9C[C@]%10(C)OC%11C(C)=CC(=O)OC%11CC%10OC9C[C@@H](C)C8OC7CC6O[C@]5(C)CC5OC5C4OC3CC2O1 (some centres not stated) | inconclusive: -158% |
| COc1ccc(/C=N\N=C(N)N)cc1 | inactive: 3.8% |
| CC1(C)C[C@H]2C=C(C=O)[C@]3(C=O)C[C@]3(C)[C@H]2C1 | inconclusive: -175% |
| CN1CCN(c2ccc([N+](=O)[O-])c(NCc3ccco3)c2)CC1 | inconclusive: 92.5% |
| CN1C2CCC1/C(=C/c1ccccn1)C(=O)/C2=C\c1ccccn1 | inconclusive: -232% |
| C[C@H]1CCC/C=C/C2C[C@H](O)CC2[C@H](O)/C=C/C(=O)O1 (some centres not stated) | inconclusive: 30.1% |
| C=CCN1C(=O)NC(=O)C(Cc2ccc(OC)c(OC)c2)C1=O (configuration not stated) | inconclusive: 114% |
